# Paper PMC6919601, “Identification of Plasmodium dipeptidyl aminopeptidase allosteric inhibitors by high throughput screening” (PLoS ONE, 2019)
# In all, about 110,000 compounds went through this assay and about 230 (0.21%) showed an effect of 50% or more. The list shows a part of the results.
# Biological target: DPAP1 (Plasmodium falciparum, UniProt Q8IIJ9)
# Test: primary screen, percent inhibition; read by cleavage of a fluorogenic dipeptide substrate; higher = more effect of the substance
# Parameters: species or system P. falciparum D10 trophozoite lysates; single well
# 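Further: 30 min substrate incubation versus DMSO and 10 µM JCP410 controls.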
# DPAP1, sequence (Q8IIJ9 whole entry, looked up): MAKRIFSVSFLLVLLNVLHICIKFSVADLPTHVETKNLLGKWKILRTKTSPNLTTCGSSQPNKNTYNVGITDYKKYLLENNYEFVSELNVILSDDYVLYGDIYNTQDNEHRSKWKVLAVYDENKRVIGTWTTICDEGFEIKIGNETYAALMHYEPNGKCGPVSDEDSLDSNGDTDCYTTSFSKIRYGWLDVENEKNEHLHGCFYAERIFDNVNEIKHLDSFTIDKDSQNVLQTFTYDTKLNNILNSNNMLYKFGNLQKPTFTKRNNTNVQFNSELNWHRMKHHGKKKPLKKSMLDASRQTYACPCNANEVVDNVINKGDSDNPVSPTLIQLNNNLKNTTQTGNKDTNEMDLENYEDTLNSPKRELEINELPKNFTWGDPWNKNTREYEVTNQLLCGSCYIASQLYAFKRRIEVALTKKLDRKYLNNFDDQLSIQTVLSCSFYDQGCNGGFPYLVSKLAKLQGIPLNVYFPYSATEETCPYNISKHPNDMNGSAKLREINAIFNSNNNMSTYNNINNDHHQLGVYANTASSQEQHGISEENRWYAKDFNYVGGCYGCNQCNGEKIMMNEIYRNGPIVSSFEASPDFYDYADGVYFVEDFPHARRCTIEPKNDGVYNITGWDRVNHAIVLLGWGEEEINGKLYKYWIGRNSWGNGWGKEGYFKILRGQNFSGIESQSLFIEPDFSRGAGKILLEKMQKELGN
row,Compound,% Inhibition @ 10 uM
1,Cc1ccc(Cl)cc1N(CC(=O)NC(C)C)S(C)(=O)=O,-3.78%
2,Cc1ccc(OCC(=O)NC2C3CC4CC(C3)CC2C4)c(-n2nc3ccccc3n2)c1 (stereo not shown),-2.28%
3,CCOC(=O)/C(C#N)=C/c1ccc(N(C)C)c(Br)c1,2.76%
4,COc1ccccc1C(=O)N1CCN(C(c2ccccc2)c2ccccc2)CC1,-0.512%
5,CCOc1cc(C=C2C(=O)N(C)C(=O)N(C)C2=O)ccc1OCCSc1cccc2ccccc12,2.94%
6,Cc1oc(-c2ccc(Cl)cc2)nc1CSCC(=O)NCc1ccc(Cl)cc1,-4.71%
7,O=C1C(/C=N/c2cccc(C(F)(F)F)c2)=C(O)c2ccccc21,0.76%
8,O=C(/C=C/c1cccc([N+](=O)[O-])c1)Nc1ccc(Cl)c(Cl)c1,-0.828%
9,O=C(O)CCN1C2=C(C(=O)CCC2)C(c2ccccc2OCc2ccccc2)C2=C1CCCC2=O,-1.5%
10,CCN1CCCC1CNC(=O)c1cn(C2CCCC2)c(=O)c2c1c1ccccc1n2C (stereo not shown),-5.27%
11,COc1cc(C2C3=C(CCCC3=O)OC3=C2C(=O)CCC3)ccc1OCC(=O)Nc1ccccc1,-0.854%
12,O=C(CCn1c(SCc2cccnc2)nc2c(sc3ccccc32)c1=O)NCC1CCCO1 (stereo not shown),9.51%
13,COc1ccc(NS(=O)(=O)c2ccc(F)cc2)cc1,-3.94%
14,OCCN1CCN(Cc2cccc(Br)c2)CC1,-1.48%
15,COCCNC(=O)c1ccc(-n2c(-c3ccccc3)cc3c2CCCC3)cc1,-5.69%
16,O=C(c1ccc(CNc2c(N3CCCC3)c(=O)c2=O)cc1)N1CCN(C2CCCCC2)CC1,2.84%
17,O=C(Nc1ccc2c(c1)OCO2)NC1CCCCC1,2.01%
18,O=C1c2ccccc2C(=O)c2c1cccc2S(=O)(=O)NCc1ccccc1,2.24%
19,O=C(C1CCN(c2nnc(-n3cccc3)s2)CC1)N1CCN(Cc2ccccc2)CC1,-2.25%
20,O=C(O)CCNC(=O)OCC1c2ccccc2-c2ccccc21,19%
21,Cc1ccc(S(=O)(=O)NC(C)C(=O)NC2CC2)cc1 (stereo not shown),5.51%

row,Compound,% Inhibition @ 10 uM
1,Cc1ccc(/C=C2/NC(=O)N(Cc3ccccc3)C2=O)s1,3.72%
2,Cc1ccccc1N/C=C1/C(=O)NC(=O)N(c2cccc(Cl)c2)C1=O,2.69%
3,COC(=O)C1CCCN1CP(=O)(O)CN1CCCC1C(=O)OC (stereo not shown),-2.77%
4,Cc1ccccc1NC(=O)c1cc(F)c(Cl)nc1Cl,-5.23%
5,CC(=O)c1nn(-c2ccc(OC(F)(F)F)cc2)nc1Nc1nncs1,-4.91%
6,CCOc1ccc2c(c1)C(C)=CC(C)(C)N2Cc1ccc(CN2c3ccc(OCC)cc3C(C)=CC2(C)C)cc1,-0.771%
7,CCOc1ccccc1C1C2=C(CC(C)(C)CC2=O)N(CC)C2=C1C(=O)CC(C)(C)C2,0.147%
8,CCN1CCN(C2C3CC4CC(C3)CC2C4)CC1 (stereo not shown),-10.6%
9,CCOc1ccc(OCC)c(S(=O)(=O)NC(C)c2ccc(-n3ccnc3)cc2)c1 (stereo not shown),-5.72%
10,Cc1ccc(S(=O)(=O)N2Cc3ccccc3C(C)CC23CCCCC3)cc1 (stereo not shown),2.78%
11,CCOc1cccc2c1Oc1nc(-c3ccccc3)nc(SCC(=O)O)c1C2,6.55%
12,CCc1ccc(NC(=O)C2CCN(S(=O)(=O)c3cc(Cl)ccc3Cl)CC2)cc1,-4.06%
13,CCOc1cc2c(cc1OCC)C(C1CCCCC1)NCC2 (stereo not shown),-1.61%
14,CCOC(=O)c1cnc2ccc([N+](=O)[O-])cc2c1O,-4.35%
15,O=C(O)C1CC=CCC1C(=O)Nc1cccc(O)c1 (stereo not shown),-5.4%
16,O=C1N/C(=C/c2ccco2)C(=O)N1c1cccc(Cl)c1,-2.67%
17,Cc1ccc(CNCc2ccc(C(=O)O)s2)cc1,1.03%
18,Cc1ccc(-n2nc3c(c2NC(=O)c2ccccc2C)CS(=O)(=O)C3)cc1,3.94%
19,CCCCNC(=O)c1cc(-c2ccco2)on1,-5.77%
20,Cc1cc2nc(-c3cccs3)cc(C(F)(F)F)n2n1,-3.97%
21,Cc1nn(CC(=O)NC(C)C23CC4CC(CC(C4)C2)C3)c(=O)c2cc3sccc3n12 (stereo not shown),-1.58%

row,Compound,% Inhibition @ 10 uM
1,CCOC(=O)N1CCN(C(=O)c2cn(C3CCCCC3)c(=O)c3c2c2ccccc2n3C)CC1,-3.39%
2,Cc1ccc(C(C)C)c(OCC(=O)Nc2ccc(S(=O)(=O)Nc3cc(C)nc(C)n3)cc2)c1,0.528%
3,CC1=CC=CN2C1=NC(C(F)(F)F)(C(F)(F)F)N=C2c1ccccc1,-5.4%
4,Cc1ccc(C2C(C#N)=C(N)Oc3[nH]nc(C(F)(F)F)c32)cc1 (stereo not shown),4.7%
5,O=C(CN(Cc1ccccc1)S(=O)(=O)c1ccc(Cl)cc1)Nc1cccc(F)c1,-11%
6,CCOc1cccc(C(=O)Nc2ccc(N3CCN(C(=O)C(C)C)CC3)c(Cl)c2)c1,-5.32%
7,O=C(CSCc1cnn(-c2ccccc2)c1-n1cccc1)N1CCOCC1,2.07%
8,O=C(Nc1ccc2ncccc2c1)c1cccc2ccccc12,2.7%
9,CC(C)(C)c1cc(Br)cc(C2N(c3ccccc3)CCN2c2ccccc2)c1O,4.89%
10,COc1ccc(-c2nc(N3CCN(Cc4ccc(Cl)cc4)CC3)nc(O)c2C#N)cc1,0.8%
11,Nc1ccc(C(=O)c2ccc(C(=O)O)c(C(=O)O)c2)cc1,6.03%
12,COc1cccc([C@H]2NCC[C@@]3(O)CCCC[C@H]23)c1,-0.0372%
13,CCC(C)n1ncn(-c2ccc(N3CCN(c4ccc(O)cc4)CC3)cc2)c1=O (stereo not shown),-4.5%
14,COc1ccc(-n2c(C)nc3c(sc4nc5ccccc5cc43)c2=O)cc1,0.658%
15,CCOc1ccccc1/C=c1\sc2nnc(-c3cc(OC)c(OC)c(OC)c3)n2c1=O,-0.0735%
16,CCN(CC)CCNC(=O)/C(=C/c1cn(CC)c2ccccc12)NC(=O)c1ccccc1F,-3.52%
17,CC(=O)C1=C(C)OC(N)=C(C#N)C12C(=O)Nc1ccccc12 (stereo not shown),-1.98%
18,O=C(c1cnccn1)N1CCN(c2ccccc2)CC1,1.43%
19,CC(C(=O)N1CCN(Cc2ccc(Cl)cc2)CC1)N1C(=O)c2ccccc2C1=O (stereo not shown),-0.053%
